Reference: article PMC5986797, “Laminin heparin-binding peptides bind to several growth factors and enhance diabetic wound healing” (Nature Communications, 2018)
No constants are given. Whether binding was seen depends on the method and setting. Some results given as binding are weak or reduced against the parent protein; the word gives no strength.

By UniProt entry, the sequences of proteins in these tests, tags left out. Where a name states a change or a piece, a line headed by the entry shows the natural chain unless it says otherwise. Residues count along the entry.
UniProt P01138, residues 122-241: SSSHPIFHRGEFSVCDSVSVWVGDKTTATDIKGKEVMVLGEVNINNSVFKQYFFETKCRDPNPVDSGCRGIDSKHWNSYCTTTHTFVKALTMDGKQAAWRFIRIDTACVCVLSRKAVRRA
UniProt Q16363: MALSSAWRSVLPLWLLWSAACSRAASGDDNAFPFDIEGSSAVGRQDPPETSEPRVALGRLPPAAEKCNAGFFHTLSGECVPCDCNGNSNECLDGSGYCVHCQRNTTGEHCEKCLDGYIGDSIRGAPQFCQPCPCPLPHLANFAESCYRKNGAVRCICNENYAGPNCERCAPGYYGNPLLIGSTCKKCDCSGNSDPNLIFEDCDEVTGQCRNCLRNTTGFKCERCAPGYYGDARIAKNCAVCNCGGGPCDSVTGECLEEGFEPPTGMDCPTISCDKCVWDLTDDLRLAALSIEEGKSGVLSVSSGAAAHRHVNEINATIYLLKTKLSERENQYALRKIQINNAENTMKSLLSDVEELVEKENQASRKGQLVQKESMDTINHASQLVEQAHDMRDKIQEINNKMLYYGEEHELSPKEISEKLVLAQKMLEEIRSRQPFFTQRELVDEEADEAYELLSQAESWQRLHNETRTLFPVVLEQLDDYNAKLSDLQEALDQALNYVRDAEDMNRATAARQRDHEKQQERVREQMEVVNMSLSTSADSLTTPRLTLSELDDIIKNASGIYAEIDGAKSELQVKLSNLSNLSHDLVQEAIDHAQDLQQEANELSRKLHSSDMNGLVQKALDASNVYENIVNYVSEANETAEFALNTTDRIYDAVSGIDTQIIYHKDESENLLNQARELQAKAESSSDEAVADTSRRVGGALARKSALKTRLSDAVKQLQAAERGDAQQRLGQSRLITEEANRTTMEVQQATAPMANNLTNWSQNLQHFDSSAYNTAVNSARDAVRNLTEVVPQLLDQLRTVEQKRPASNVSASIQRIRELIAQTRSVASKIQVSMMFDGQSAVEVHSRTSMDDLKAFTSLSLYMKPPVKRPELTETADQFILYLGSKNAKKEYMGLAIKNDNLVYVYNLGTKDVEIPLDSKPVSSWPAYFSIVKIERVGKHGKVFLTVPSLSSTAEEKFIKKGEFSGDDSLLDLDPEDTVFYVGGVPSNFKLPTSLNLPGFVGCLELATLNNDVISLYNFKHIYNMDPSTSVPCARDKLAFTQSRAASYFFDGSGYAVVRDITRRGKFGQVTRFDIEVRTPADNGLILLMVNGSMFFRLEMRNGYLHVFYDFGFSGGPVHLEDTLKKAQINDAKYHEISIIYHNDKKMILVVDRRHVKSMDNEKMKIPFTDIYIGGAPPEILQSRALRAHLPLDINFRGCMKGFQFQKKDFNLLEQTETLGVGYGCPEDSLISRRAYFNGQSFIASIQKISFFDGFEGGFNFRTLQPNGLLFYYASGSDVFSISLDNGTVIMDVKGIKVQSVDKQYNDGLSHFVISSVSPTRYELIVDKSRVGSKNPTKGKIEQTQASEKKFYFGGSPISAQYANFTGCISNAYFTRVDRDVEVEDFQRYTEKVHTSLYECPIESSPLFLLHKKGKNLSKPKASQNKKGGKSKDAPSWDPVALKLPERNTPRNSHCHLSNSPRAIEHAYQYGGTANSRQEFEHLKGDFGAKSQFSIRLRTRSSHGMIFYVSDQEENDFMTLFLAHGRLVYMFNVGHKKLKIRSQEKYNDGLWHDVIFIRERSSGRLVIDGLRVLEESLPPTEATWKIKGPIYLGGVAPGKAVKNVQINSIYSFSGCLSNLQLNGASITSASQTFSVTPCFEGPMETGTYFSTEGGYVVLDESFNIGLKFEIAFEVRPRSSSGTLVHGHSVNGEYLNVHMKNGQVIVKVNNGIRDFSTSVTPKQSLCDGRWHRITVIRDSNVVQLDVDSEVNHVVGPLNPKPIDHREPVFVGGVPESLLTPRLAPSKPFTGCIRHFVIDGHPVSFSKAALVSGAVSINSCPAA

Experiments:
Assay in all cases: ELISA; plates coated with 50 nM GF or chemokine in PBS; 10 nM laminin isoform in PBS added; bound laminin detected with anti-LAMC1 or anti-LAMA3 polyclonal antibody; A450 signals greater than 0.1 taken as binding; BSA-coated wells as control; both purified
[1] = biological target: T1, placental growth factor (PlGF)-2 (human) (UniProt P49763)
T1 sequence: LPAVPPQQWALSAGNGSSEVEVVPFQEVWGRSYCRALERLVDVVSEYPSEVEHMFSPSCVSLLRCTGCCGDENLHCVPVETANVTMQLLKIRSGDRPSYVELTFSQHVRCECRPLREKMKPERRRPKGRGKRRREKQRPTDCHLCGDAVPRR

BMP-4 = biological target: T2, BMP-4 (UniProt P12644)
T2 sequence: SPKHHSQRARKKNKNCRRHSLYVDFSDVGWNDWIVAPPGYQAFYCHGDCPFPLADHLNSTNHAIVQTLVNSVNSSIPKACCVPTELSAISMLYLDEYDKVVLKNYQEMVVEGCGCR

PlGF-1 (human) = biological target: T3, PlGF-1 (human) (UniProt P49763)
T3 sequence: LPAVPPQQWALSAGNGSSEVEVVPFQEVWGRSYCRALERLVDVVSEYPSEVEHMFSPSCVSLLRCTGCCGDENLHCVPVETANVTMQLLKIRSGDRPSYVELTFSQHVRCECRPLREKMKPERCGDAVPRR

[2] = biological target: β-nerve growth factor (βNGF) (UniProt P01138)
NT-3 = biological target: T4, NT-3 (UniProt P20783)
T4 sequence: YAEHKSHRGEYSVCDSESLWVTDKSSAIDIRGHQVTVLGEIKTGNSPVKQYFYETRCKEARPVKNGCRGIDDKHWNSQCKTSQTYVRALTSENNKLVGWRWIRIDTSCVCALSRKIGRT

binding [1] | binding (BMP-4) | binding (PlGF-1 (human)) | binding [2] | binding (NT-3) | Substance
binds | no binding (tested: 10 nM laminin) | no binding (tested: 10 nM laminin) | binds weakly | binds | recombinant human laminin-411 (from UniProt Q16363 25-1823; P07942 22-1786; P11047 34-1609) (complex)
binds | no binding (tested: 10 nM laminin) | no binding (tested: 10 nM laminin) | binds weakly | binds | recombinant human laminin-421 (from UniProt Q16363 25-1823; P55268 33-1798; P11047 34-1609) (complex)
